Experimental data as given in patent US5998368A, “Derivatives of structurally modified VIP and pharmaceutical compositions containing them” (Yeda Research and Development Co. Ltd., priority 1991, dated 1999).
At least one peptide structure holds a part that was inferred or is arguable (an end, a ring closure or a residue). Some entries repeat one wording, which the source may state once for all of them. Square brackets hold non-standard residues; d marks the D form. Peptide text beside a SMILES is read from it. 12Ado = NCCCCCCCCCCCC(=O)O; Nle = CCCC[C@H](N)C(=O)O; Ahx = NCCCCCC(=O)O

Tested on: penile reflexes in castrated rats
Assay: Penile reflexes (E2, cups) in castrated rats after transdermal application
Type: in vivo, rat
Conditions: 7 μg in 5% Sefsol and 20% isopropanol; for No. of E2 / No. of cups: Table 3, topical, 45 min session
Experimental: (a) The ointment composition was: 31.2 μl 10% Sefsol 318™ (glyceryl monocaprylate), and either 0.24 mg stearoyl-VIP in 31.2 μl DMSO (1-2μl per animal) (SEFS in FIG. 1) or 0.24 rig stearoyl-Nle^17 -VIP in the above (SEFS* in FIG. 1).
(b) For other analogs described hereinafter 10 μl of solution were used per animal containing 7 μg of active material in a vehicle containing 5% Sefsol and 20% isopropanol.
In a further set of experiments the effects of stearoyl-VIP compounded with Sefsol 318™ were compared with those of stearoyl-Nle^17 -VIP compounded with Sefsol 318™.
In a second type of biological experiments the effects of compositions containing other modified VIP conjugates compounded with Sefsol 318™ were tested.
Rats with reduced sexual potential due to castration were employed. Male rats (250-300 g, about three month old) were kept in a 12-hours light, 12-hours dark cycle. Experiments were always conducted within the dark period, 2-6 hours after the onset of darkness. Male rats were castrated and given partial testosterone replacement (4 μg/100 g body weight) in the form of daily injection for 14-21 consecutive days (the duration of the experiment). Experiments were conducted one week following surgery.
A procedure was utilized that employed the technique that measures sexual reflexes in the penis, which enables direct evaluation of penile erection following transdermal administration of the drug. Successful reproduction depends, in large part, upon the precise execution of temporally organized, functionally related behavioural units. In these experiments, we concentrated on the final stages of the erection process (reddening of the penis accompanied by its distension and extension leading to complete erection) and monitored the latency time to the first E2 and first cup(^14).
For testing, each animal was restrained in a supine position with the anterior portion of its body enclosed in a loosely fitting cylinder (7 cm diam). After a belt was secured around the torso, the glans penis was extruded from its sheath and gently held perpendicular to the abdomen by a thin wooden applicator positioned at the posterior of the penis. The legs of the male were held by the observer and this position was maintained throughout the test period. The duration of the session was 45 minutes. The latencies and numbers of E2 and cups were recorded and plotted.
An E2 is defined as a complete erection which can be followed by cup in which the penile tip is turned into a cup-like structure, whereby the glands flare out such that the penis is wider in its distal portion than its base. This final stage requires E2 and is probably a pre-requisite for ejaculation (13). Using, all the parameters one can obtain a reliable measure of the sexual activity of the tested rat.
Six to ten animals were tested in this paradigm for each variable. Control animals received ointment compositions without the modified VIP conjugate.

CCCCCCCCCCCCCCCCCCCCCCC(=O)N[C@@H](Cc1c[nH]cn1)C(=O)N[C@@H](CO)C(=O)N[C@@H](CC(=O)O)C(=O)N[C@@H](C)C(=O)N[C@H](C(=O)N[C@@H](Cc1ccccc1)C(=O)N[C@H](C(=O)N[C@@H](CC(=O)O)C(=O)N[C@@H](CC(N)=O)C(=O)N[C@@H](Cc1ccc(O)cc1)C(=O)N[C@H](C(=O)N[C@@H](CCCNC(=N)N)C(=O)N[C@@H](CC(C)C)C(=O)N[C@@H](CCCNC(=N)N)C(=O)N[C@@H](CCCCN)C(=O)N[C@@H](CCC(N)=O)C(=O)N[C@@H](CCCC)C(=O)N[C@@H](C)C(=O)N[C@H](C(=O)N[C@@H](CCCCN)C(=O)N[C@@H](CCCCN)C(=O)N[C@@H](Cc1ccc(O)cc1)C(=O)N[C@@H](CC(C)C)C(=O)N[C@@H](CC(N)=O)C(=O)N[C@@H](CO)C(=O)N[C@H](C(=O)N[C@@H](CC(C)C)C(=O)N[C@@H](CC(N)=O)C(N)=O)[C@@H](C)CC)C(C)C)[C@@H](C)O)[C@@H](C)O)C(C)C [Tric Val Nle* Val]
No. of E2: 12 ± 0.4 | No. of cups: 36.75 ± 2.95

CCCC[C@H](NC(=O)[C@H](CCC(N)=O)NC(=O)[C@H](CCCCN)NC(=O)[C@H](CCCNC(=N)N)NC(=O)[C@H](CC(C)C)NC(=O)[C@H](CCCNC(=N)N)NC(=O)[C@@H](NC(=O)[C@H](Cc1ccc(O)cc1)NC(=O)[C@H](CC(N)=O)NC(=O)[C@H](CC(=O)O)NC(=O)[C@@H](NC(=O)[C@H](Cc1ccccc1)NC(=O)[C@@H](NC(=O)[C@H](C)NC(=O)[C@H](CC(=O)O)NC(=O)[C@H](CO)NC(=O)[C@@H](N)Cc1c[nH]cn1)C(C)C)[C@@H](C)O)[C@@H](C)O)C(=O)N[C@@H](C)C(=O)N[C@H](C(=O)N[C@@H](CCCCN)C(=O)N[C@@H](CCCCN)C(=O)N[C@@H](Cc1ccc(O)cc1)C(=O)N[C@@H](CC(C)C)C(=O)N[C@@H](CC(N)=O)C(=O)N[C@@H](CO)C(=O)N[C@H](C(=O)N[C@@H](CC(C)C)C(=O)N[C@@H](CC(N)=O)C(=O)NCCCCCC(=O)NCCCCCCCCCCCC(N)=O)[C@@H](C)CC)C(C)C [Val Nle* Val Caproylaminolauryl amide] (H-HSDAVFTDNYTRLRKQ[Nle]AVKKYLNSILN[Ahx][12Ado]-NH2)
No. of E2: 12.5 ± 1.2 | No. of cups: 42 ± 4.8

CCCCCC(=O)N[C@@H](Cc1c[nH]cn1)C(=O)N[C@@H](CO)C(=O)N[C@@H](CC(=O)O)C(=O)N[C@@H](C)C(=O)N[C@H](C(=O)N[C@@H](Cc1ccccc1)C(=O)N[C@H](C(=O)N[C@@H](CC(=O)O)C(=O)N[C@@H](CC(N)=O)C(=O)N[C@@H](Cc1ccc(O)cc1)C(=O)N[C@H](C(=O)N[C@@H](CCCNC(=N)N)C(=O)N[C@@H](CC(C)C)C(=O)N[C@@H](CCCNC(=N)N)C(=O)N[C@@H](CCCCN)C(=O)N[C@@H](CCC(N)=O)C(=O)N[C@@H](CCCC)C(=O)N[C@@H](C)C(=O)N[C@H](C(=O)N[C@@H](CCCCN)C(=O)N[C@@H](CCCCN)C(=O)N[C@@H](Cc1ccc(O)cc1)C(=O)N[C@@H](CC(C)C)C(=O)N[C@@H](CC(N)=O)C(=O)N[C@@H](CO)C(=O)N[C@H](C(=O)N[C@@H](CC(C)C)C(=O)N[C@@H](CC(N)=O)C(N)=O)[C@@H](C)CC)C(C)C)[C@@H](C)O)[C@@H](C)O)C(C)C [caproyl-Nle^17 -VIP]
number of E2, various modified conjugates compared to vehicle control (topical, FIG. 5): significantly higher number of E2 than control | number of cups, various modified conjugates compared to vehicle control (topical, FIG. 6): significantly higher number of cups than control
